# Source: PubChem BioAssay AID1347417 (National Center for Advancing Translational Sciences (NCATS), 2020)
# Screen size: about 120,000 compounds; about 5,300 (4.4%) were called active. The inconclusive results got no clear call from the source; some entries with a clear call stand among them for comparison. The call rests on the fitted dose curve; in most records, active means well fitted inhibition curve with a large enough effect; inconclusive means small, poorly fitted or top-dose-only effect; inactive means no such curve, though single readings can be large or run the other way. Potencies of inconclusive entries are doubtful fits and often do not repeat.
# Assay: qHTS Primary assay for Inhibitors of Plasmodium falciparum Dd2 growth in vitro; further: nearly all actives have a fitted effect of over 65% in size;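 on activity, negative = inhibition: plate controls were DMSO vehicle for no effect and reference drug for full effect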
# Details: P. falciparum Dd2 growth, SYBR Green, 72 h; activity, negative = inhibition: at 28.9 µM (top of the series) unless noted; series mostly up to 28.9 µM
# Outline: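 Readout: SYBR Green fluorescence, 485 nm excitation, 535 nm emission, after ~16 h lysis at 37C. Before that, Dd2-infected red cells (2.5% hematocrit) grew 72 h with compound, 29 uM top final concentration.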
# Potency means the concentration at half of the fitted maximal effect; tags describe the fitted curve by direction and shape.
Compound,Potency,outcome,"activity, negative = inhibition"
CC(C)(C)CC(=O)Nc1ccc([C@@H](O)[C@H]2COCC(=O)N2Cc2ccccc2F)cc1,"inconclusive: 5.62 µM [inhibitor, single point]",,
COc1ccc(Cl)cc1NC(=O)c1sc(-n2nc(C)c(Cc3ccccc3)c2C)nc1C,"inconclusive: 0.0794 µM [inhibitor, full curve, poor fit]",,
Cc1ccc(C(=O)NCCc2ccc(Cl)cc2)cc1-n1c(C)nc2cccnc21,"inconclusive: 10 µM [inhibitor, single point]",,
COC(=O)CO[C@@H]1CO[C@H]2[C@@H]1OC[C@@H]2NC(=S)Nc1cc(C)cc(C)c1,,inactive [at 44.1 µM],
O=C(c1cccc(OC2CN(Cc3cccnc3)C2)c1)N1CCCC1,"inconclusive: 17.8 µM [inhibitor, single point]",,
Cn1c(SCc2ccc(F)cc2)nc2ccc(C(=O)NCc3ccc(Cl)cc3)cc21,"inconclusive: 10 µM [inhibitor, single point]",,
COc1ccc(-c2noc(CN(C(=O)COc3cc(C)c(Br)c(C)c3)C(C)C)n2)cc1,"inconclusive: 12.6 µM [inhibitor, single point]",,
Oc1ccccc1-c1cc(C2=CCOCC2)c2cncn2c1,active: 1.26 µM,,
CCCn1c(SCc2nc(-c3ccc(OC)cc3OC)no2)nnc1-c1ccc(Cl)cc1,"inconclusive: 7.94 µM [inhibitor, partial curve, poor fit]",,
CCC1CN(C(=O)N2CCC(C(=O)NCCc3ccc(Cl)cc3)CC2)c2ccccc2O1 (stereo unspecified),"inconclusive: 11.2 µM [inhibitor, partial curve]",,
COc1cccc(CN2CCc3c(cc(C(=O)Nc4ccc(C)cc4C)n3C)C2)c1,"inconclusive: 1.58 µM [inhibitor, full curve, poor fit]",,
COc1ccc(CCNS(=O)(=O)c2ccc3c(c2)CC(C)N3C(=O)C2CCC2)cc1OC (stereo unspecified),"inconclusive: 14.1 µM [inhibitor, single point]",,
CCOc1ccc(CC(=O)NCCc2csc(-c3ccc(C)cc3)n2)cc1,active: 10 µM,,
Clc1cccc(-c2noc(-c3ccc(NCC4COCCO4)nc3)n2)c1 (stereo unspecified),,,inactive: -18.3%
Cc1noc(-c2nc(-c3ccc(Cl)c(F)c3)no2)n1,,inactive,
CCOc1ccc(N(C(=O)CC(C)C)S(=O)(=O)c2ccc3c(c2)oc(=O)n3C)cc1,"inconclusive: 17.8 µM [inhibitor, single point]",,
O=C(CNC(=O)c1ccccc1)NCc1nnc2ccc(-c3ccccc3)nn12,,,inactive: -19.9%
COc1ccc(CCNC(=O)CCCn2c(=O)c3ccccc3n(Cc3cccc(Cl)c3)c2=O)cc1OC,"inconclusive: 12.6 µM [inhibitor, single point]",,
CCOc1ccc(CCNC(=O)c2ccc3c(Cl)c4c(nc3c2)CCCC4)cc1,"inconclusive: 11.2 µM [inhibitor, partial curve, poor fit]",,
CCOC(=O)c1ccc(NC(=O)c2c(NC(C)=O)sc3c2CCC(C)C3)cc1 (stereo unspecified),"inconclusive: 8.91 µM [inhibitor, partial curve, poor fit]",,
O=S(=O)(NCCc1nnc2ccc(SCc3ccc(Cl)cc3Cl)nn12)c1ccccc1,"inconclusive: 17.8 µM [inhibitor, single point]",,
COCCC(=O)N1Cc2ccccc2OC2(CCN(C(C)C)CC2)C1,"inconclusive: 3.98 µM [inhibitor, partial curve, poor fit]",,

Compound,Potency,outcome,"activity, negative = inhibition"
CC(C)(C)CN[C@H]1C[C@@H](Cc2cc(CN3CCOCC3)on2)C1(C)C,"inconclusive: 0.501 µM [inhibitor, full curve, poor fit]",,
O=C(c1ccc(F)cc1Cl)N1CCN(c2cc(-c3ccc(F)cc3)[nH]n2)CC1,,inactive,
CCCN1C(=O)C(CC(=O)NC(C)CC)Sc2ncccc21 (stereo unspecified),,,inactive: -10.1%
CCOC(=O)c1[nH]c2c(c1Cc1ccccc1)C(=O)CC(c1ccc(Cl)cc1)C2 (stereo unspecified),active: 10 µM,,
O=C(NCCn1cccc1-c1nc(-c2ccc3c(c2)OCO3)no1)c1ccccc1F,"inconclusive: 10 µM [inhibitor, single point]",,
Cc1ccc(C(=O)N2CCCN(c3cc(-c4ccc(Cl)cc4)[nH]n3)CC2)s1,"inconclusive: 1.12 µM [inhibitor, partial curve, poor fit]",,
COc1cc(CN2CCCC3(Cc4ccccc4CNC3=O)C2)cc(OC)c1 (stereo unspecified),"inconclusive: 7.94 µM [inhibitor, partial curve]",,
O=C(NCC12CCC=C1N(Cc1ccccc1)C(=O)CC2)c1cccnc1 (stereo unspecified),,inactive,
CCOc1ccc(C2c3[nH]c4ccccc4c3CCN2C(=O)CCc2ccccc2)cc1 (stereo unspecified),"inconclusive: 10 µM [inhibitor, single point]",,
Cc1noc(-c2cn(C3CCN(C(=O)c4cc5ccccc5[nH]4)CC3)nn2)n1,,inactive,
CC(=O)N1C[C@@H]2CCCN3CCC[C@@H]([C@H]23)[C@H]1CCCC(=O)NCc1ccc(C)o1,"inconclusive: 7.94 µM [inhibitor, partial curve, poor fit]",,
Cc1ccc(-n2cccn2)c(CN2CCCC(CCC(=O)Nc3ccccc3F)C2)c1 (stereo unspecified),"inconclusive: 7.94 µM [inhibitor, partial curve]",,
CC(=O)N1CCC(NC[C@@H]2C=C(C)[C@H](Cc3nc4ccccc4n3C)C[C@H]2C(C)C)CC1,active: 4.47 µM,,
CC(=O)N1CCCC1C(=O)Nc1ccc(-c2nc3ccccc3o2)cc1 (stereo unspecified),,,inactive: -20.3%
COc1ccc(-c2nc3sc(CCNC(=O)c4cc(OC)c(OC)c(OC)c4)c(C)n3n2)cc1,"inconclusive: 11.2 µM [inhibitor, partial curve]",,
COCCNC(=O)[C@@H]1C[C@H](Oc2ccccc2)CN1S(=O)(=O)Cc1ccccc1,,,inactive: -16.6%
Fc1ccc(CNC[C@H]2Cn3c(-c4ccc(F)cc4)cnc3CO2)cc1,,,inactive: -15.2% [at 44.1 µM]
Cc1c(C(=O)N2CCN3C(=O)CNC(=O)C3C2)cnn1-c1ccccn1 (stereo unspecified),,,inactive: -2.81%
Cc1nc(-c2ccc(N(C)C)cc2)cc([C@H]2CN3CC[C@H]2C[C@@H]3CNCc2cccc(C#N)c2)n1,"inconclusive: 2.51 µM [inhibitor, full curve]",,
Cc1c2cnn(-c3ccccc3)c(=O)c2c(C)n1CCCC(=O)Nc1cc(F)ccc1F,"inconclusive: 12.6 µM [inhibitor, partial curve, poor fit]",,
CN(C)C(=O)N1CCC2(CCC(=O)N(CC3CCCO3)C2)CC1 (stereo unspecified),,,inactive: 5.56%
COc1ccc(CN2CCc3oc(C)c(C(=O)NC(C)Cn4ccc(C)n4)c3C2)cc1 (stereo unspecified),"inconclusive: 17.8 µM [inhibitor, single point]",,

Compound,Potency,outcome,"activity, negative = inhibition"
Cc1ccccc1OC1(C(=O)O)CCN(c2ncccc2C(N)=O)CC1,,,inactive: -2.67%
CN1C(=O)[C@@H]2C[C@@H](CN2Cc2ccccc2)Oc2ccccc21,,inactive [at 44.1 µM],
COc1ccc(-n2c(SCC(=O)Nc3ccc(Cl)c(C)c3)nc3n[nH]c(C)c3c2=N)cc1,"inconclusive: 17.8 µM [inhibitor, single point]",,
CCOC(=O)c1c(NC(=O)c2ccc(S(=O)(=O)N3CCC(C)CC3)cc2)sc2c1CCN(C)C2,active: 8.91 µM,,
COc1cccc(-c2cc(-c3nc(C4CCOC4)no3)[nH]n2)c1 (stereo unspecified),"inconclusive: 12.6 µM [inhibitor, single point]",,
CSc1ccc(CNC(=O)c2ccc3c(c2)N(C)C2CCCCCN2C3=O)cc1 (stereo unspecified),"inconclusive: 4.47 µM [inhibitor, partial curve]",,
CCOc1ccc(CCNC(=O)c2sc3nc4n(c(=O)c3c2C)CCCC4)cc1OCC,"inconclusive: 17.8 µM [inhibitor, single point]",,
O=C(NCc1ccccc1)[C@H]1CN2CCC1C[C@@H]2Cn1cc(-c2ccccc2)nn1 (stereo partly specified),"inconclusive: 3.98 µM [inhibitor, full curve, poor fit]",,
CN(C)c1ccc2nnc(-c3cc(C(=O)Nc4cccc(Cl)c4)ccn3)n2n1,"inconclusive: 22.4 µM [inhibitor, single point]",,
Cc1cc(OCC(=O)Nc2ccc(C(=O)OC3CCCCC3)cc2)cc(C)c1Cl,"inconclusive: 17.8 µM [inhibitor, single point]",,
CC(=O)N1CC2(CCCN2Cc2ccccn2)Cc2ccccc21 (stereo unspecified),,,inactive: -15.9%
COc1ccc(CN2C=C(C(=O)OCc3noc(-c4ccccc4C)n3)C(C)=NS2(=O)=O)cc1,"inconclusive: 17.8 µM [inhibitor, single point]",,
COc1ccc(Cl)cc1NC(=O)CCC1CCCN(C(=O)c2ccoc2C)C1 (stereo unspecified),active: 3.98 µM,,
Cc1nnc(NC(=O)CSc2nc3c([nH]c4ccccc43)c(=O)n2-c2ccc(Cl)cc2)s1,"inconclusive: 8.91 µM [inhibitor, single point]",,
CC1CCCN(c2ncnc3c2CN(c2ccc(Cl)cc2)C(=O)CN3C)C1 (stereo unspecified),active: 10 µM,,
CCOc1ccc(C(=O)N2CCCC3(C2)NC(=O)N(Cc2cccc(Cl)c2)C3=O)cc1 (stereo unspecified),"inconclusive: 17.8 µM [inhibitor, single point]",,
O=C1NCCCCCN(C(=O)NCc2ccc(F)cc2)[C@H]2CCCC[C@@H]12,,,inactive: -12.8%
CN(C)CC(=O)N1Cc2ccccc2CC2(CCCN2C)C1 (stereo unspecified),"inconclusive: 8.91 µM [inhibitor, single point]",,
CCCS(=O)(=O)c1nc(S(=O)(=O)c2ccc(C)cc2)c(N(CC)CC)s1,,inactive,
CCCc1cc(N2CCC(NCc3cc(F)c(F)c(F)c3)CC2)nc(C)n1,"inconclusive: 7.94 µM [inhibitor, partial curve, poor fit]",,
CCOc1ccc2c(c1)c(=O)c(C(=O)c1ccccc1)cn2Cc1ccccc1,,,inactive: -4.85%
COc1ccc(-n2nc(C)c([C@@H]3C=C[C@@H](NCc4ccc(C(C)C)cc4)C3)c2C)cc1,"inconclusive: 2.82 µM [inhibitor, partial curve, poor fit]",,
